Measured values: the supplement of paper PMC9174493
The list shows a part of the results. Single values of this set are uncertain. Values with irradiation are relative to irradiated vehicle.

Assays:
A549-Dual [1] = assay: NF-kB reporter (SEAP) activity, viability-corrected, relative to vehicle (fold change vs vehicle); higher = more activation of STING-IRF / NF-kB immune response reporter
A549-Dual [2] = assay: ISRE reporter (Lucia luciferase) activity, viability-corrected, relative to vehicle (fold change vs vehicle); higher = more activation of STING-IRF / NF-kB immune response reporter
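Throughout, for NF-kB reporter (SEAP) activity, viability-corrected, relative to vehicle: viability correction based on the alamar blue assay, with concentrations leaving 10% survival or less dropped.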

SMILES | NF-kB reporter (A549-Dual [1]; 0.1 µM, irradiation: 8 Gy/4 fr) | NF-kB reporter (A549-Dual [1]; 0.1 µM, irradiation: none) | NF-kB reporter (A549-Dual [1]; 0.3 µM, irradiation: 8 Gy/4 fr) | NF-kB reporter (A549-Dual [1]; 0.3 µM, irradiation: none) | NF-kB reporter (A549-Dual [1]; 1 µM, irradiation: 8 Gy/4 fr) | NF-kB reporter (A549-Dual [1]; 1 µM, irradiation: none) | NF-kB reporter (A549-Dual [1]; 3 µM, irradiation: 8 Gy/4 fr) | NF-kB reporter (A549-Dual [1]; 3 µM, irradiation: none) | NF-kB reporter (A549-Dual [1]; 10 µM, irradiation: 8 Gy/4 fr) | NF-kB reporter (A549-Dual [1]; 10 µM, irradiation: none) | ISRE reporter (A549-Dual [2]; 0.1 µM, irradiation: 8 Gy/4 fr) | ISRE reporter (A549-Dual [2]; 0.1 µM, irradiation: none) | ISRE reporter (A549-Dual [2]; 0.3 µM, irradiation: 8 Gy/4 fr) | ISRE reporter (A549-Dual [2]; 0.3 µM, irradiation: none) | ISRE reporter (A549-Dual [2]; 1 µM, irradiation: 8 Gy/4 fr) | ISRE reporter (A549-Dual [2]; 1 µM, irradiation: none) | ISRE reporter (A549-Dual [2]; 3 µM, irradiation: 8 Gy/4 fr) | ISRE reporter (A549-Dual [2]; 3 µM, irradiation: none) | ISRE reporter (A549-Dual [2]; 10 µM, irradiation: 8 Gy/4 fr) | ISRE reporter (A549-Dual [2]; 10 µM, irradiation: none)
COc1cc(/C=C/C(=O)/C=C(O)/C=C/c2ccc(O)c(OC)c2)ccc1O [Curcumin] | 0.905 | 1.13 | 0.915 | 1.2 | 0.812 | 0.997 | 0.852 | 0.839 | 0.889 | 0.711 | 0.881 | 0.928 | 0.947 | 1.08 | 0.809 | 0.908 | 0.8 | 0.698 | 0.759 | 0.937
CC1(C)OC2CC3C4CCC5=CC(=O)C=CC5(C)C4(F)C(O)CC3(C)C2(C(=O)CO)O1 (stereo not given) [Triamcinolone Acetonide] | 0.575 | 1.21 | 1.05 | 1.28 | 1.23 | 0.928 | 1.22 | 0.887 | 1 | 0.776 | 0.0575 | 0.267 | 0.0549 | 0.268 | 0.057 | 0.317 | 0.0498 | 0.397 | 0.0565 | 0.293
CCC1(O)CC2CN(CCc3c([nH]c4ccccc34)C(C(=O)OC)(c3cc4c(cc3OC)N(C=O)C3C(O)(C(=O)OC)C(OC(C)=O)C5(CC)C=CCN6CCC43C65)C2)C1 (stereo not given) [Vincristine] | 1.06 | 2.06 | 0.732 | 2.32 | 1.02 | 2.55 | 0.73 | 1.99 | 0.751 | 1.92 | 0.257 | 1.19 | 0.0839 | 1.27 | 0.182 | 1.08 | 0.0863 | 0.744 | 0.0625 | 0.509
CC(C)(C)OC(=O)NC1CCCCC/C=C\C2CC2(C(=O)NS(=O)(=O)C2CC2)NC(=O)C2CC(OC(=O)N3Cc4cccc(F)c4C3)CN2C1=O (stereo not given) [Danoprevir (ITMN-191)] | 0.885 | 1 | 1.07 | 1.22 | 1.24 | 0.885 | 1.21 | 0.944 | 0.905 | 0.892 | 0.921 | 0.761 | 0.818 | 0.871 | 0.844 | 0.787 | 0.782 | 0.824 | 0.863 | 0.873
CCOc1ccccc1OCCNC(C)Cc1ccc(OC)c(S(N)(=O)=O)c1 (stereo not given) [Tamsulosin] | 0.955 | 1.1 | 1.03 | 1.23 | 1.46 | 1.25 | 1.64 | 1.09 | 1.08 | 0.845 | 1.07 | 0.89 | 0.945 | 0.794 | 0.956 | 0.787 | 0.914 | 1.11 | 0.825 | 0.876
CC(=O)N1CC(O)CC1C(=O)O (stereo not given) [Oxaceprol] | 0.947 | 0.976 | 1.17 | 0.689 | 0.971 | 0.767 | 1.27 | 0.819 | 0.751 | 0.943 | 0.962 | 0.72 | 0.901 | 0.824 | 0.724 | 0.751 | 0.773 | 0.807 | 0.792 | 0.867
CN(C)N=Nc1[nH]cnc1C(N)=O [Dacarbazine] | 0.831 | 1.1 | 0.973 | 1.13 | 0.819 | 0.998 | 0.969 | 0.887 | 0.873 | 0.997 | 1.02 | 1.06 | 1.19 | 1.04 | 0.836 | 1.03 | 0.977 | 0.925 | 0.927 | 1.09
O=CC(O)C(O)C(O)C(O)COC1OC(CO)C(O)C(O)C1O (stereo not given) [Melibiose] | 1.18 | 1.48 | 1.17 | 1.37 | 1.45 | 0.986 | 1.73 | 1.1 | 1.02 | 0.953 | 1.15 | 1.47 | 1.07 | 1.39 | 1.32 | 1.1 | 1.11 | 1.25 | 1.25 | 0.687
CC(=O)O.CC(C)CC(NC(=O)CNC(=O)C(Cc1ccc(O)cc1)NC(=O)C(CO)NC(=O)C(Cc1c[nH]c2ccccc12)NC(=O)C(Cc1cnc[nH]1)NC(=O)C1CCC(=O)N1)C(=O)NC(CCCNC(=N)N)C(=O)N1CCCC1C(=O)NCC(N)=O (stereo not given) [Gonadorelin Acetate] | 0.816 | 0.879 | 0.741 | 0.995 | 0.826 | 1.24 | 0.737 | 1.1 | 0.869 | 0.845 | 0.919 | 1.21 | 0.925 | 0.952 | 0.991 | 0.917 | 0.877 | 0.924 | 1 | 0.862
C=CC(=O)Nc1cccc(Oc2nc(Nc3ccc(N4CCN(C)CC4)cc3)nc3ccsc23)c1 | 1.16 | 1.02 | 0.828 | 1.31 | 0.982 | 1.53 | 0.854 | 1.26 | 0.762 | 0.945 | 0.94 | 1.15 | 0.817 | 1.11 | 0.997 | 1.25 | 0.858 | 1.2 | 0.837 | 1.03
CCN(CC)CCCC(C)Nc1ccnc2cc(Cl)ccc12.O=P(O)(O)O.O=P(O)(O)O (stereo not given) [Chloroquine Phosphate] | 1.48 | 0.999 | 1.27 | 1.48 | 1.02 | 1.29 | 1.28 | 0.922 | 1.31 | 1.18 | 0.939 | 1.1 | 0.907 | 0.986 | 1.09 | 0.913 | 0.907 | 1.08 | 1.32 | 1
CC(=O)OC1(C(C)=O)CCC2C3C=C(C)C4=CC(=O)CCC4(C)C3CCC21C (stereo not given) [Megestrol Acetate] | 0.609 | 0.88 | 0.589 | 0.959 | 0.511 | 0.838 | 0.462 | 0.744 | 0.498 | 0.917 | 0.403 | 0.529 | 0.348 | 0.538 | 0.244 | 0.409 | 0.182 | 0.321 | 0.166 | 0.423
NC(=O)Cc1cccc(C(=O)c2ccccc2)c1N [Nepafenac] | 1.03 | 1.06 | 0.979 | 1.2 | 1.33 | 0.891 | 1.33 | 0.963 | 0.97 | 0.918 | 0.933 | 0.813 | 0.788 | 0.881 | 0.821 | 0.748 | 0.829 | 0.829 | 0.619 | 0.876
CNC(=O)c1cc(Oc2ccc(NC(=O)Nc3ccc(Cl)c(C(F)(F)F)c3)cc2)ccn1 [Sorafenib] | 0.91 | 0.884 | 0.817 | 0.881 | 0.881 | 0.845 | 0.669 | 1.03 | 0.761 | 0.932 | 0.821 | 1.07 | 0.786 | 0.932 | 0.79 | 0.786 | 0.395 | 0.645 | 0.447 | 0.769
COC1CC2CCC(C)C(O)(O2)C(=O)C(=O)N2CCCCC2C(=O)OC(C(C)CC2CCC(OP(C)(C)=O)C(OC)C2)CC(=O)C(C)/C=C(\C)C(O)C(OC)C(=O)C(C)CC(C)/C=C/C=C/C=C/1C (stereo not given) [Ridaforolimus (Deforolimus, MK-8669)] | 0.94 | 1.17 | 0.954 | 1.29 | 0.93 | 1.34 | 0.94 | 1.15 | 1.22 | 1.07 | 0.661 | 1.18 | 0.673 | 1.18 | 0.666 | 1.2 | 0.612 | 1.28 | 0.619 | 0.912
CC(C)Cc1ccc(C(C)C(=O)OCc2ccccn2)cc1 (stereo not given) [Ibuprofen piconol] | 1.09 | 1 | 0.937 | 0.93 | 1.03 | 0.83 | 1.17 | 0.894 | 0.843 | 1.16 | 1.09 | 0.733 | 0.909 | 0.595 | 0.729 | 0.6 | 0.771 | 0.827 | 0.768 | 0.815
Nc1ncn(C2OC(CO)C(O)C2O)c(=O)n1 (stereo not given) [Azacitidine] | 0.95 | 1.27 | 1.02 | 1.12 | 0.843 | 1.06 | 0.513 | 0.647 | 0.505 | 0.514 | 0.927 | 1.4 | 1.21 | 1.67 | 0.865 | 2.07 | 0.351 | 1.16 | 0.323 | 0.496
CS(=O)(=O)Nc1cc2occ(NC=O)c(=O)c2cc1Oc1ccccc1 [Iguratimod] | 1.09 | 1.62 | 1.18 | 1.38 | 1.11 | 1.19 | 1.14 | 1.23 | 0.653 | 0.742 | 0.927 | 1.36 | 0.926 | 0.811 | 0.623 | 0.796 | 0.487 | 0.602 | 0.326 | 0.525
Cc1cccn2c(=O)c(-c3nnn[n-]3)cnc12.[K+] [Pemirolast potassium] | 1.53 | 0.901 | 1.14 | 1.04 | 0.894 | 0.975 | 0.874 | 0.947 | 1.18 | 1.45 | 1.02 | 1.2 | 0.965 | 0.914 | 1.08 | 0.815 | 1.04 | 0.959 | 1.13 | 0.963
COc1cc(C2c3cc4c(cc3C(OC3OC5COC(C)OC5C(O)C3O)C3COC(=O)C23)OCO4)cc(OC)c1O (stereo not given) [Etoposide] | 1.14 | 1.58 | 1.33 | 1.68 | 1.02 | 1.2 | 1.04 | 1.19 | 0.858 | 1.32 | 1 | 4.09 | 1.12 | 3.83 | 0.663 | 2.47 | 0.593 | 2.55 | 0.484 | 2.7
CC1(C)CCC(CN2CCN(c3ccc(C(=O)NS(=O)(=O)c4ccc(NCC5CCOCC5)c([N+](=O)[O-])c4)c(Oc4cnc5[nH]ccc5c4)c3)CC2)=C(c2ccc(Cl)cc2)C1 [Venetoclax (ABT-199, GDC-0199)] | 1.02 | 1 | 0.782 | 1.04 | 0.916 | 1.36 | 0.742 | 1.34 | 0.76 | 0.985 | 0.852 | 0.763 | 0.551 | 0.806 | 0.673 | 0.63 | 0.307 | 0.645 | 0.364 | 0.634
